The source of these data is publication PMC4336329 (PLoS ONE, 2015).

About 14,000 (4.5%) of roughly 310,000 compounds showed an effect of 50% or more. Effects have a minus sign here. The list shows a part of the results.
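Further: peak tail current of the secondary pulse compared with the same well before compound.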

The test deals with human ether-à-go-go-related gene (hERG) potassium channel (human, UniProt Q12809). Nature of the test: primary screen, population patch clamp on CHO cells stably expressing hERG.
Sequence of human ether-à-go-go-related gene (hERG) potassium channel (Q12809 whole entry, looked up): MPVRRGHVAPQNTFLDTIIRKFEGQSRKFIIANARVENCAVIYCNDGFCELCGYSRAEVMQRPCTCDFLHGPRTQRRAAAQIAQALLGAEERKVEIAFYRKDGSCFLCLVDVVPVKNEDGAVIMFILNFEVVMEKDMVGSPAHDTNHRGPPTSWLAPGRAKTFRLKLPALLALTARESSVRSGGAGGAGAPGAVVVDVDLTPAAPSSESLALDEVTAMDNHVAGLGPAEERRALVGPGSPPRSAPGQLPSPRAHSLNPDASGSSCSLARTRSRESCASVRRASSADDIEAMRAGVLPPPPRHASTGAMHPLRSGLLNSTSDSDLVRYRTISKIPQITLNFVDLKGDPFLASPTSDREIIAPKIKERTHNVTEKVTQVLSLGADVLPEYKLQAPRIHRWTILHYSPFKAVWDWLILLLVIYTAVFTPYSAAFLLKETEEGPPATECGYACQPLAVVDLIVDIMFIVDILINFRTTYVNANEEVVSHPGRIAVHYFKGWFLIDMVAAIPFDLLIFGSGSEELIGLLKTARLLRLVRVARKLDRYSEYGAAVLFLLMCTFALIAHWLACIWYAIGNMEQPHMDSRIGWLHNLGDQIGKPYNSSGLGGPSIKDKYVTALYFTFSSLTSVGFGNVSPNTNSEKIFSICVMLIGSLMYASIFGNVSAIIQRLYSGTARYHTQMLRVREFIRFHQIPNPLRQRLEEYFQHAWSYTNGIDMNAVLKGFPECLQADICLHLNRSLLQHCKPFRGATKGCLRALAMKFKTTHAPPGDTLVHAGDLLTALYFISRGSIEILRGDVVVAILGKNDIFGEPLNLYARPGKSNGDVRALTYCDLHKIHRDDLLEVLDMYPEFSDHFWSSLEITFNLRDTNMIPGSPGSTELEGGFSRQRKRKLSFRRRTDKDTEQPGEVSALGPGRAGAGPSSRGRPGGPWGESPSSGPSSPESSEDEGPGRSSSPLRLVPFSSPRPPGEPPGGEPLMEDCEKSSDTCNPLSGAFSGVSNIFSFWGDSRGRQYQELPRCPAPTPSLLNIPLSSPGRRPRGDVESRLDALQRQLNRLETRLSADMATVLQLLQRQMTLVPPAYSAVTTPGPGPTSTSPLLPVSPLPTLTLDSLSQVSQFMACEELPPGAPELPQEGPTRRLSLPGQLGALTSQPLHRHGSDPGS
As to `O=C(NCCc1ccccc1)c1ccccc1NC(=O)C1CC=CCC1C(=O)O` (stereo not shown), the “hERG current change (%, negative = inhibition) at 10uM” value is on record as 26.4%.
`CC1(C)Cc2c(c(-c3ccccc3)nc3sc4c(=O)[nH]c(=S)[nH]c4c23)CO1`: the “hERG current change (%, negative = inhibition) at 10uM” value is recorded as -19.1%.
For `C/C(=N\NC(=O)c1ccc2c(c1)OCO2)c1ccc(C(=O)O)s1`, the “hERG current change (%, negative = inhibition) at 10uM” value was found to be 15.2%.
The figure for `Cc1nn2c3c(cnc2c1-c1ccccc1)C(=O)CC(c1ccco1)C3` (stereo not shown) is -3.37%.
As to `CCOc1ccc(Nc2nnc(Cc3ccc(OC)cc3)c(=O)[nH]2)cc1`, the “hERG current change (%, negative = inhibition) at 10uM” value was determined as 19.4%.
The figure for `COC(=O)C1=C(C)N=C2SC(C)C(=O)N2C1c1cccs1` (stereo not shown) is 7.16%.
As to `CCc1ccc(NC(=O)Cn2nnc(C(=O)NCc3ccc4c(c3)OCO4)c2N)cc1`, the “hERG current change (%, negative = inhibition) at 10uM” value was -21.6%.
With `CCC(=O)N1CCc2cc(S(=O)(=O)CCC(=O)Nc3c(C)n(C)n(-c4ccccc4)c3=O)ccc21` the figure was 0.301%; with `Cc1cccc(C)c1OCC(=O)Nc1oc(-c2ccccc2)c(-c2ccccc2)c1C#N`, 15.4%; with `CC(C)C(=O)N1CCN(c2nc(-c3ccccc3)c3c(c2C#N)CCCC3)CC1`, -26.6%.
The figure for `NC(=O)NC(=O)COC(=O)CCSc1ccccc1` is 31.6%.
Consider `COc1ccccc1NC(=O)C(C)NC(c1ccccc1)c1ccccc1` (stereo not shown), for which the “hERG current change (%, negative = inhibition) at 10uM” value came to 17.5%.
As for `CC(C)(C)NC(=O)COc1ccc(-c2ccccc2)cc1`, the “hERG current change (%, negative = inhibition) at 10uM” value is listed as -10.7%.
The figure for `CC(=O)CC(=O)Nc1ccc(Cl)cn1` is 13.7%; for `O=S(=O)(NCc1csc(-c2cccnc2)n1)c1ccc(Cl)s1` it is -37.1%; for `COc1ccc2c(c1)c(C(=O)CN1CCN(Cc3ccccc3)CC1)c(C)n2C` it is -29.8%.
The figure for `CNC(=O)c1c(NC(=O)CS(=O)(=O)c2ccc(F)cc2)sc(C)c1C` is -32.7%; for `Cc1cccnc1CNC(=O)C1CCC(=O)N(CCc2cccc(F)c2)C1` (stereo not shown) it is -15.7%; for `CCOC(=O)C1=C(C)Nc2ccccc2N=C1NC(=O)C(CC)c1ccccc1` (stereo not shown) it is -2.37%.
The figure for `Nc1c(C(=O)c2ccccc2)oc2ccc(Br)cc12` is 5.11%.
In the case of `Cc1cc(C(=O)NCCCn2ccnc2)sc1-c1ccccc1`, the “hERG current change (%, negative = inhibition) at 10uM” value is on record as -10.3%.
In the case of `COc1cc(C)ccc1OCCOCCOc1c(C)cc(C)cc1Br`, the “hERG current change (%, negative = inhibition) at 10uM” value is listed as 6.85%.
The figure for `O=[N+]([O-])[N-][n+]1cnn(Cc2ccc(Cl)cc2)c1` is 15.2%.
On to `COc1ccc(OCCN(C)CC(=O)Nc2ccccc2SC)cc1`, for which the “hERG current change (%, negative = inhibition) at 10uM” value was -1.97%.
Take `NS(=O)(=O)c1ccc(CNC(=O)CCCSc2ccccc2)cc1`: the “hERG current change (%, negative = inhibition) at 10uM” value is -0.688%.
The figure for `COc1ccc(Cc2nnc(NC(=O)CSc3ccccc3)s2)cc1OC` is 9.85%; for `Cc1cc(Br)c2c(c1)C(O)(N1CCCCC1C)C(=O)N2` (stereo not shown) it is -11.3%; for `CCc1nc(N2CCC(C)CC2)c2oc3ccccc3c2n1.Cl` it is 5.55%.
The figure for `Cc1ccc(S(=O)(=O)N(CC(=O)Nc2ccc(C)cc2C)C(=O)N2CCN(C)CC2)cc1` is 3.86%; for `Cn1c(=O)c2c(nc(SCc3cccnc3)n2Cc2ccc(F)cc2)n(C)c1=O` it is -30.7%.
The figure for `Cc1ccc(C(=O)Nc2cccc(O)c2)cc1S(=O)(=O)N1CCCCCC1` is 11.2%; for `CCN1C(=O)c2cccc3c(NC(=O)c4ccc5c(c4)OCCO5)ccc1c23` it is -8.43%; for `Cc1ccc(/C=C(\C#N)C(=O)NCC2CCCO2)o1` (stereo not shown) it is 16.9%.
As for `CCn1nc(C)c(CN2CCC(n3nccc3NC(=O)CCCc3ccccc3)CC2)c1C`, the “hERG current change (%, negative = inhibition) at 10uM” value is reported as -60.1%.
The figure for `COc1cc(CNc2cccc(C(=O)O)c2)cc(Br)c1OCC(=O)NC(C)(C)C` is 2.52%.
With `COc1ccccc1Oc1ccc(S(=O)(=O)N2CCN(C)CC2)cc1` the figure was -1.98%; with `Cc1cc(C)cc(-n2c(SCC(=O)Nc3cccc(S(=O)(=O)NC4=NCCCCC4)c3)nc3ccccc3c2=O)c1`, -0.695%; with `CCC(=O)Nc1ccc(NC(=O)c2c(C)nc3ccccn23)cc1`, 17.1%.
The figure for `C/C(=N\NC(=O)CC1N=C(Cc2ccccc2)NNC1=O)c1ccccc1` (stereo not shown) is -5.72%.
As for `CC(=O)NCCC1CCCCN1C(=O)c1cc(COc2cc(C)ccc2C)on1` (stereo not shown), the “hERG current change (%, negative = inhibition) at 10uM” value is listed as -10.9%.
In the case of `CC(NC(=O)Cc1ccc(S(=O)(=O)N2CCOCC2)s1)c1ccc(Cl)c(Cl)c1` (stereo not shown), the “hERG current change (%, negative = inhibition) at 10uM” value is given as -35.8%.
With `NS(=O)(=O)c1ccc(CNC(=O)COc2ccc3c4c(c(=O)oc3c2)CCCC4)cc1` the figure was 19.7%; with `CCC(C)(C)NC(=O)CN(C(=O)c1ccc(N2CCCC2)nc1)c1ccc(F)cc1`, 12.8%.
With `CC(C)(C)NC(=O)COC(=O)CCC(=O)c1cccs1` the figure was 4.57%.
As for `CN(CCc1ccccc1)c1ccc([N+](=O)[O-])cn1`, the “hERG current change (%, negative = inhibition) at 10uM” value is 2.08%.
The figure for `COc1cccc(CC2(CO)CCCN(Cc3cn[nH]c3-c3cc(C)ccc3C)C2)c1` (stereo not shown) is -59.2%; for `CC(C)c1cc(C(=O)Nc2cc(Cl)ccc2O)no1` it is -12.5%.
Take `CCC(C)n1ncn(-c2ccc(N3CCN(c4ccc(O)cc4)CC3)cc2)c1=O` (stereo not shown): the “hERG current change (%, negative = inhibition) at 10uM” value is on record as 0.0619%.
The figure for `NS(=O)(=O)c1ccc(CCNC(=O)C2CCCN2S(=O)(=O)c2cccc3nsnc23)cc1` (stereo not shown) is 18.2%; for `CC(C)n1c(SCC(=O)NC2CC2)nnc1-c1ccco1` it is 6.51%.
With `O=C(Nc1ncccc1Cl)c1cc2ccccc2o1` the figure was 11.5%; with `Nc1n[nH]c2cc(=O)n(-c3ccc(Cl)cc3)nc12`, 20%; with `CNC(=O)CSc1nc2nn(-c3ccccc3)c(=O)c-2c2n1CCCCC2`, -37.2%.
With `Cc1onc(-c2ccccc2)c1C(=O)NCC(O)c1ccccc1` (stereo not shown) the figure was 5%; with `O=C(NCc1ccc(C(=O)N2CCC3(CC2)OCCO3)cc1)c1cccc(Br)c1`, -2.3%.
